Measured values taken from PubChem BioAssay AID1347165 (National Center for Advancing Translational Sciences (NCATS), 2019).
Out of some 220,000 compounds screened, about 5,700 (2.6%) were called active. This list was built around the results that the source calls inconclusive (neither active nor inactive); the mix of calls is not that of the screen. Calls follow the shape of the dose curve; as a rule, active = well fitted inhibition curve with a large enough effect; inconclusive = small, poorly fitted or top-dose-only effect; inactive = no such curve, though single readings can be large or run the other way. Potencies of inconclusive entries are doubtful fits and often do not repeat.
Also: nearly all actives have a fitted effect of over 70% in size.
For activity change, negative = inhibition in this document: 0% is about no effect.
Potency is read from the fitted curve at half-maximal effect; tags tell the direction and shape of the fitted curve.

These molecules were tested against Lysine-specific demethylase 5B (Homo sapiens) (UniProt Q9UGL1) (assay: Primary screen for KDM5B Histone Demethylases FDH-coupled qHTS). Settings: FDH-coupled NADH fluorescence (FDH is formaldehyde dehydrogenase); activity change, negative = inhibition: at 57.7 µM (top of the series) unless noted.
Sequence of UniProt Q9UGL1 (Q9UGL1 whole entry, looked up): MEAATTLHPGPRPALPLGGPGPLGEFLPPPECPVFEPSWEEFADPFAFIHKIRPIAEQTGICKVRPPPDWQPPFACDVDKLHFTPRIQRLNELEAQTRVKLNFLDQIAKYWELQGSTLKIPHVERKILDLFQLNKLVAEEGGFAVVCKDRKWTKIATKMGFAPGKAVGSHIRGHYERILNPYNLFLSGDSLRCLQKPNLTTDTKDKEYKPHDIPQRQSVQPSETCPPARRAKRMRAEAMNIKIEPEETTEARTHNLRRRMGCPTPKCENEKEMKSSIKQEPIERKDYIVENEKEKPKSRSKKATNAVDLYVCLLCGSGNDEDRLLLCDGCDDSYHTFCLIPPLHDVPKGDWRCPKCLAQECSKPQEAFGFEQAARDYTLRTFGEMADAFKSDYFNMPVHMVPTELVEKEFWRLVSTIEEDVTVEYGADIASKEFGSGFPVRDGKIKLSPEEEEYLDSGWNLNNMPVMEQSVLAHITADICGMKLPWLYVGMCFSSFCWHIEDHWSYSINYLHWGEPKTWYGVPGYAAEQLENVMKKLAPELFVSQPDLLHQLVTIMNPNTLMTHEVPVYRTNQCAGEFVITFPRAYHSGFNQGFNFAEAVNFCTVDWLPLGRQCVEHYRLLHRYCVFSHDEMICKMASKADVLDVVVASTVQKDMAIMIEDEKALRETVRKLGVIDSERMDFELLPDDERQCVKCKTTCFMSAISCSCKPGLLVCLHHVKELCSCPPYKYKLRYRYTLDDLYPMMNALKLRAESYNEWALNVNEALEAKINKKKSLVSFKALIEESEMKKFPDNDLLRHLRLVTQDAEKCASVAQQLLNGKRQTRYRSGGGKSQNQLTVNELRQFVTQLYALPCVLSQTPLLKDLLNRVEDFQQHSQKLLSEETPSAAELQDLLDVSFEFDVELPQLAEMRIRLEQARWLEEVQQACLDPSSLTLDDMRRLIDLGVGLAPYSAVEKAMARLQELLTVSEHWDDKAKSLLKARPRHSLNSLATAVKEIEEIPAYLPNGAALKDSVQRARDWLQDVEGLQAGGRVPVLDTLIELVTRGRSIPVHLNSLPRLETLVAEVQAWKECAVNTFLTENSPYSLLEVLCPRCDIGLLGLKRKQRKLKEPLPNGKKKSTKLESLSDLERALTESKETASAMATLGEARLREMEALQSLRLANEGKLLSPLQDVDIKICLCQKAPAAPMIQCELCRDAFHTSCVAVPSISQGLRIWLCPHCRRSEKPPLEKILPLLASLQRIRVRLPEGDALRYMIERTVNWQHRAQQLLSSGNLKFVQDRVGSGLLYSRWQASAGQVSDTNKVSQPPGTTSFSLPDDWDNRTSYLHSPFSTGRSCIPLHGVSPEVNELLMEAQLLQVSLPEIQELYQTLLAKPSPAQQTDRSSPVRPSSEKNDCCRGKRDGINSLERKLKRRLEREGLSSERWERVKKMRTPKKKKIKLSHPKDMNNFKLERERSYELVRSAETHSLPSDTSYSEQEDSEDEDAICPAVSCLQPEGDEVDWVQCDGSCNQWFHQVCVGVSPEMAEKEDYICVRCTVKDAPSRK
Method in brief: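 qHTS format, multiple compound concentrations. Buffer 50 mM HEPES pH 7.5/0.01% Tween-20; 200 nM KDM5BΔAP final; 10 min compound preincubation; substrate-mix levels 12.5 µM peptide, 25 µM α-KG, 0.25 mM NAD⁺; 30 min RT; ΔRFU.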
With `CN(Cc1ccc(-c2ccccc2)cc1)Cc1ccccc1Cl` the Potency was “inactive”. For `Cc1ccc(C)c(N(C)S(=O)(=O)c2ccc3[nH]cc(C(=O)NC4CCCC4)c(=O)c3c2)c1`, the Potency was inconclusive: 28.2 µM [inhibitor, single point]. `CCc1ccc(OCC(=O)Nc2ccc(Cl)c(-c3nc4ncccc4o3)c2)cc1` was tested, and the Potency was inconclusive: 35.5 µM [inhibitor, single point]. For `CCOC(=O)c1ccc(NC(=O)c2ccccc2-c2ccccc2)cc1`, the Potency was inconclusive: 17.8 µM [inhibitor, partial curve, poor fit]. For `COc1ccc(S(=O)(=O)c2cn(C)c3cc(N4CCOCC4)c(F)cc3c2=O)cc1`, the Potency was inconclusive: 35.5 µM [inhibitor, partial curve, poor fit]. In the case of `Cc1ccc(NS(=O)(=O)c2ccc3[nH]c4c(c3c2)CCCCC4)cc1`, the Potency is reported as inconclusive: 17.8 µM [inhibitor, partial curve, poor fit]. In the case of `COc1cc(C)cc2oc(=O)c(CC(=O)Nc3ccc4c(c3)OCO4)c(C)c12`, the Potency is reported as inconclusive: 28.2 µM [inhibitor, partial curve, poor fit]. In the case of `O=C(CCN1CCC(c2ccc(Cl)s2)=N1)c1ccc(Cl)s1`, the Potency is reported as inconclusive: 12.6 µM [inhibitor, partial curve, poor fit]. With `CC(C)(C)c1nc2ccc(NS(=O)(=O)c3ccc(F)c(F)c3F)cc2[nH]1` the Potency was inconclusive: 28.2 µM [inhibitor, partial curve, poor fit]. In the case of `COc1ccc2[nH]c3c(c2c1)CCNC31CCN(C(=O)c2ccccc2F)CC1`, the Potency is reported as inconclusive: 11.2 µM [inhibitor, partial curve]. `COc1nc2nc(CCc3ccccc3)n(C)c2cc1-c1ccnn1C` was tested, and the Potency was active: 39.8 µM. For `CCN1CC(C)C(=O)CC1C` (stereo not drawn), the Potency was “inactive”. In the case of `CN(CC(=O)NC(N)=O)C1CCCCCC1`, the Potency is reported as “inactive”. In the case of `O=C(NCc1nc(-c2cnccn2)n[nH]1)[C@H]1CNC[C@H](C(=O)N2CCOCC2)C1`, the Potency is reported as inconclusive: 5.01 µM [inhibitor, partial curve, poor fit]. With `COc1ccc(-c2nn(C)c3sc(C(=O)N4CCN(c5cccc(Cl)c5)CC4)cc23)cc1OC` the Potency was inconclusive: 31.6 µM [inhibitor, partial curve, poor fit]. For `CNC(=O)C1CC(=O)N(c2ccc(OCC(=O)Nc3ccc(F)cc3)cc2)C1` (stereo not drawn), the Potency was “inactive”. For `OC1(c2csc(CN3CCc4ccccc4C3)n2)CCN(CC2CCCCC2)CC1`, the Potency was inconclusive: 31.6 µM [inhibitor, partial curve]. `Cc1cnc(C(=O)N2CC3CC(C2)[C@@H]2CCCC(=O)N2C3)cn1` (stereo partly drawn) was tested, and the Potency was inconclusive: 1 µM [inhibitor, full curve]. `COc1ccc(NC(=O)CSc2nc3cc(C)[nH]c3c(=O)n2C)cc1Cl` was tested, and the Potency was “inactive”. For `COC(=O)[C@@H]1Cc2ncn(Cc3ccc(OC)cc3)c2CN1S(=O)(=O)c1ccc(F)cc1`, the Potency was inconclusive: 25.1 µM [inhibitor, single point]. For `Cc1c(C)n(Cc2ccncc2)c2ncnc(NCc3ccncc3)c12`, the Potency was inconclusive: 35.5 µM [inhibitor, partial curve, poor fit]. `Cc1ccc(C)c(C(C)NC(=O)c2cccc(F)c2)c1` (stereo not drawn) was tested, and the Potency was “inactive”. For `CC1CCN(C(=O)CSc2nc(N)c(NC(=O)c3ccccc3)c(=O)[nH]2)CC1`, the Potency was inconclusive: 39.8 µM [inhibitor, single point]. In the case of `Cc1cccc(-n2c(-c3ccco3)nc3c(cnn3-c3ccc(F)cc3)c2=O)c1`, the Potency is reported as inconclusive: 39.8 µM [inhibitor, single point]. With `COCCN1C(=O)CS(=O)C12CCN(C(=O)NCCc1ccccc1)CC2` (stereo not drawn) the Potency was “inactive”. In the case of `O=C(O)CN1c2cccc3cccc(c23)S1(=O)=O`, the Potency is reported as inconclusive: 25.1 µM [inhibitor, partial curve, poor fit]. With `Cc1cc(C)c(-n2[nH]nnc2=S)c(C)c1` the Potency was inconclusive: 39.8 µM [inhibitor, single point]. In the case of `Nc1ccsc1C(=O)N[C@H](Cc1ccncc1)C1CC(O)C1` (stereo partly drawn), the Potency is reported as inconclusive: 20 µM [inhibitor, single point]. For `O=C(COCc1cc(-c2cccs2)on1)Nc1cccc(O)c1`, the activity change, negative = inhibition was inconclusive: -32.9% [inhibitor]. With `CCOc1ccc(NC(=O)c2cc(=O)c3cc(C)ccc3o2)cc1OC` the Potency was “inactive”. For `O=C1CCN(Cc2ccncc2)CCCC(C(=O)NCc2cccnc2)CCN1` (stereo not drawn), the Potency was inconclusive: 39.8 µM [inhibitor, single point]. In the case of `NS(=O)(=O)Cc1ccc(CNC(=O)c2cccc(F)c2)cc1`, the Potency is reported as “inactive”. In the case of `C[C@H]1[C@@H]2[C@@H](O)C([C@H](C)C(=O)NCc3ccco3)CC[C@@]2(C)CC[C@@H]1NC(=O)c1cncnc1` (stereo partly drawn), the Potency is reported as inconclusive: 35.5 µM [inhibitor, partial curve, poor fit]. `CN1CCN(c2nc3c(c(=O)[nH]2)CCN(Cc2cccn2C)CC3)CC1` was tested, and the Potency was inconclusive: 31.6 µM [inhibitor, partial curve, poor fit]. In the case of `COc1cccc(C(CNC(=O)C2CCN(S(=O)(=O)c3ccc(C)c(C)c3)CC2)N(C)C)c1` (stereo not drawn), the Potency is reported as “inactive”. For `CC(c1nc2ccccc2s1)N(C)C(=O)c1cccc(S(=O)(=O)Nc2ccc(Cl)cc2)c1` (stereo not drawn), the Potency was “inactive”. With `CC(C)CNc1ccc2c(n1)C(C)(C(=O)Nc1cccnc1)CN(Cc1ccccc1)C2` (stereo not drawn) the Potency was active: 31.6 µM. For `N#Cc1nc(-c2ccco2)oc1N1CCN(Cc2ccc(Br)cc2)CC1`, the Potency was inconclusive: 28.2 µM [inhibitor, partial curve, poor fit]. With `CCN1CCN(CCNC(=O)CSc2ncnc3c2sc2cccc(F)c23)CC1` the Potency was inconclusive: 31.6 µM [inhibitor, partial curve, poor fit]. For `Cc1cccc(COc2ccc(CNC(=O)c3nccnc3N)cc2)c1`, the Potency was inconclusive: 25.1 µM [inhibitor, partial curve, poor fit]. `O=C(O)CCC(=O)N1CCC(N(Cc2ccccc2)C2CCOCC2)CC1` was tested, and the Potency was “inactive”. `Fc1ccc(Cc2nc3nccc(-c4ccco4)n3n2)cc1` was tested, and the Potency was active: 20 µM. In the case of `Cc1ccc(C(C)NC(=O)c2cccnc2)c(C)c1` (stereo not drawn), the Potency is reported as “inactive”.
